{"source": "ChEMBL document CHEMBL4888484", "about": "“Replenishing the malaria drug discovery pipeline: Screening and hit evaluation of the MMV Hit Generation Library 1 (HGL1) against asexual blood stage Plasmodium falciparum ,using a nano luciferase reporter read-out” (2022)", "note": "The whole screen tested about 150,000 compounds, of which about 540 (0.36%) showed an effect of 50% or more. This is one part of the list.", "data": [{"tested_on": "Plasmodium falciparum", "assay": "Primary screen in NF54 nanoGlo assay, in single point, at 2uM, 72h; a lower Z score goes with more inhibition", "type": "functional, Erythrocyte", "details": "timepoint 72 hour", "units": {"% Inhibition": "%"}, "values": [{"smiles": "O=C(NCc1noc(-c2ccco2)n1)c1coc(C2CC2)n1", "% Inhibition": 12, "Z score": -1.51}, {"smiles": "CC(=O)Nc1ccc(CNC[C@H]2Cn3c(-c4ccc5c(c4)OCCO5)cnc3CO2)cc1", "% Inhibition": 17, "Z score": -1.96}, {"smiles": "CCCN(CC1CC1)C(=O)C1CCCN(c2cccc3c2C(=O)N(C(C)c2nccs2)C3=O)C1", "note": "(centres undefined)", "% Inhibition": -2, "Z score": 0.43}, {"smiles": "COC[C@@H]1CN(Cc2ccc[nH]2)C[C@H]1c1nc(C2CC2)no1", "% Inhibition": -12, "Z score": 2.01}, {"smiles": "COc1cccc(-c2n[nH]cc2C(=O)NC2CCN(c3ncnc4c3CCCC4)CC2)c1", "% Inhibition": -7, "Z score": 0.95}, {"smiles": "COc1ccccc1NC(=O)N(CC(=O)N(Cc1cccn1Cc1ccc(Br)cc1)C1CCCCC1)C(C)C", "% Inhibition": -8, "Z score": 1.17}, {"smiles": "COc1ccc(CNC(=O)N2CCC3(CC2)C[C@@H](Cc2nc(-c4cccnc4)no2)CCO3)cc1", "% Inhibition": -1, "Z score": 0.07}, {"smiles": "N#Cc1c(NC(=O)CCN2CCOCC2)sc2c1CCC2", "% Inhibition": -8, "Z score": 1.17}, {"smiles": "C[C@H]1CN(CCCN2CCCC2=O)CCN1c1ccc2nncn2n1", "% Inhibition": -3, "Z score": 0.34}, {"smiles": "Cc1cc(C(=O)Nc2cc(C)on2)nc(N2CCOCC2)n1", "% Inhibition": -6, "Z score": 0.98}, {"smiles": "CCC(=O)N(CC)CC(=O)Nc1nc(-c2ccccc2)cn1-c1ccc(OC)c(OC)c1", "% Inhibition": 3, "Z score": -0.43}, {"smiles": "CCC(CC)n1nc(C)cc1C(=O)N1CCOc2ccc(F)cc2C1", "% Inhibition": 9, "Z score": -1.34}, {"smiles": "COCc1nc(C2(CC3CC3)CCN(C(=O)COCc3ccccc3)CC2)no1", "% Inhibition": 8, "Z score": -1}, {"smiles": "Cc1ccc(CN(C)C(=O)c2cccc(S(=O)(=O)N3CCCC3)c2)o1", "% Inhibition": -17, "Z score": 2.67}, {"smiles": "CC(NC(=O)CC1CCCCC1)C(=O)N1CCCCC1c1nc2ccccc2o1", "note": "(centres undefined)", "% Inhibition": -15, "Z score": 1.65}, {"smiles": "Cc1cc(=O)c(C(=O)N(c2ccc(C)c(F)c2)C2CCOCC2)c[nH]1", "% Inhibition": -14, "Z score": 1.72}, {"smiles": "O=C(CCc1cc2n(n1)CCN(Cc1ccc3[nH]ccc3c1)C2)NCCO", "% Inhibition": -1, "Z score": 0.19}, {"smiles": "O=C(CN1C(=O)CCC1=O)N1CCCCCCC1", "% Inhibition": 4, "Z score": -0.37}, {"smiles": "COC(=O)Nc1cc(Cl)c(OC)cc1OC", "% Inhibition": 8, "Z score": -1.11}, {"smiles": "O=S(=O)(Oc1cccc2ccccc12)c1cccc2cccnc12", "% Inhibition": -10, "Z score": 1.15}, {"smiles": "CCN(C(=O)c1ccccc1Cc1ccc(C)cc1)C1CCOCC1", "% Inhibition": -13, "Z score": 1.36}, {"smiles": "Cc1cc(C)c(NC(=O)Cn2c(C)cc(C)c(-c3nc(-c4ccc5c(c4)OCO5)no3)c2=O)c(C)c1", "% Inhibition": -15, "Z score": 2.02}, {"smiles": "CCn1c(=O)[nH]c(=O)c2c(C(=O)N3CCC[C@H]3c3ccc(OC)cc3)cc(C(C)C)nc21", "% Inhibition": -8, "Z score": 1.33}, {"smiles": "C[C@@]1(C(=O)NC2CCCCCCC2)Cn2nc(C3CC3)cc2C(=O)N1c1ccc(Cl)cc1", "% Inhibition": -6, "Z score": 1.02}, {"smiles": "Cc1c(C(=O)N2CCC(c3nc4ccccc4o3)CC2)oc2ccccc12", "% Inhibition": -21, "Z score": 1.84}, {"smiles": "Cc1cc(Br)cc(C(=O)N(C)CC[C@H](C)O)c1", "% Inhibition": -6, "Z score": 0.57}, {"smiles": "CCS(=O)(=O)NCCNCc1ccc(C)cc1Br", "% Inhibition": -8, "Z score": 1.39}, {"smiles": "O=C(NC1CC[C@@H](O)[C@@H](O)CC1)c1nc(-c2ccccc2)ns1", "note": "(some centres undefined)", "% Inhibition": -1, "Z score": 0.22}, {"smiles": "Cc1ccc2c(c1)CCCN2C(=O)c1cc(C2CC2)[nH]n1", "% Inhibition": -6, "Z score": 0.86}, {"smiles": "C=CCOc1cccc(NC(=O)[C@@H]2CN(S(C)(=O)=O)c3cc(C)ccc3O2)c1", "% Inhibition": -14, "Z score": 1.86}, {"smiles": "CCN1CCN(c2nc3ncn(CC(=O)Nc4ccc(Br)cc4)c(=O)c3s2)CC1", "% Inhibition": -10, "Z score": 1.64}, {"smiles": "CC(C)(C)c1csc(C2CCN(C(=O)c3ccco3)CC2)n1", "% Inhibition": -8, "Z score": 1.14}, {"smiles": "CCCCN(CCC(=O)Nc1nnc(-c2ccc(C(F)(F)F)cc2)s1)C(=O)C1CCCC1", "% Inhibition": 12, "Z score": -1.2}, {"smiles": "Cc1cc(OCC(=O)NCCN2CCOCC2)nc2c1c(-c1ccccc1)nn2-c1ccccc1", "% Inhibition": -7, "Z score": 0.98}, {"smiles": "COc1ccc(CC(=O)N2CCCN(c3ccc4nncn4n3)CC2)cc1OC", "% Inhibition": -11, "Z score": 1.43}, {"smiles": "Cc1nn(C)c(C)c1S(=O)(=O)N1CCC(Cc2nncn2Cc2ccccc2)CC1", "% Inhibition": -2, "Z score": 0.31}, {"smiles": "O=C1NCCN(C(=O)c2ccc(O)cc2)[C@H]1Cc1ccccc1", "% Inhibition": 10, "Z score": -1.39}, {"smiles": "CC(C)CN(CCn1nc2ccccn2c1=O)c1cccc(O)c1", "% Inhibition": -22, "Z score": 2.96}, {"smiles": "Cc1nn(C)c(C)c1-c1c(-c2ccccc2)ncn1[C@@H](C)CCc1ccco1", "% Inhibition": -9, "Z score": 1.48}, {"smiles": "Cc1ccc(C)c([C@@H](NC(=O)c2cc(C(C)C)nn2C)c2cccnc2)c1", "% Inhibition": 1, "Z score": -0.23}, {"smiles": "Cc1cc(C)c(S(=O)(=O)N2CCn3c(nn(CC4CC4)c3=O)C2)c(C)c1", "% Inhibition": -11, "Z score": 1.86}, {"smiles": "O=C(c1n[nH]c2ccccc12)N1CCCn2nc(-c3ccc(Cl)cc3)cc2C1", "% Inhibition": -16, "Z score": 2.74}, {"smiles": "COc1ccc(CN2CCCC3(CCOCC3)C2)c(OC)c1", "% Inhibition": -1, "Z score": 0.23}, {"smiles": "Cn1c(C(=O)NCc2ccc(N3CCNC(=O)C3)cc2)ccc1-c1cccc(Br)c1", "% Inhibition": 0, "Z score": 0.05}, {"smiles": "CCn1c(CN2CCC[C@H](C(=O)c3cccc(Cl)c3)C2)nc2ccccc21", "% Inhibition": -5, "Z score": 0.96}, {"smiles": "CCc1cccc(OCCCNC(C)(C)C)c1", "% Inhibition": -7, "Z score": 1}, {"smiles": "CN(C)Cc1cc2n(n1)CCN(c1nccc(N3CCC[C@H](O)C3)n1)C2", "% Inhibition": -3, "Z score": 0.53}, {"smiles": "CC(C)[C@H](Cn1ccnn1)NC(=O)C(c1ccccc1)c1ccccc1", "% Inhibition": 17, "Z score": -2.18}, {"smiles": "C/C(=C\\c1ccco1)CN1CCC[C@H](CNC(=O)c2ccc3c(c2)OCO3)C1", "% Inhibition": -11, "Z score": 1.47}, {"smiles": "CC(C)CS(=O)(=O)NCCc1ccsc1", "% Inhibition": -15, "Z score": 2.52}, {"smiles": "O=C(NC1CCOCC1)N(Cc1ccccc1)[C@H]1CCS(=O)(=O)C1", "% Inhibition": -12, "Z score": 1.14}, {"smiles": "O=C(NCCC1CCCCCC1)c1cc2n(n1)C[C@@H](O)CNC2=O", "% Inhibition": -9, "Z score": 1.24}, {"smiles": "CN(Cc1sccc1Cl)C1(CO)CCOCC1", "% Inhibition": 35, "Z score": -3.92}, {"smiles": "O=C(NCc1cccc(F)c1)c1nc(-c2ccc3c(c2)OCO3)no1", "% Inhibition": 1, "Z score": -0.18}, {"smiles": "O=C1C2CCCCC2C(=O)N1CC(O)COc1c(Cl)cccc1Cl", "note": "(centres undefined)", "% Inhibition": -9, "Z score": 0.88}, {"smiles": "COc1cc(C(=O)NCCc2c[nH]c3ccccc23)on1", "% Inhibition": 7, "Z score": -1.04}, {"smiles": "Cc1cncc(C(=O)NC[C@H]2CN(CCc3ccccc3)C(=O)CO2)c1", "% Inhibition": -7, "Z score": 0.87}, {"smiles": "COc1ccc(CN2CC[C@H](c3nnc(-c4ccc(Cl)cc4)o3)C2)cc1", "% Inhibition": 7, "Z score": -0.87}, {"smiles": "O=C(Cc1cccc(F)c1)Nc1ccnn1[C@H]1CCS(=O)(=O)C1", "% Inhibition": -5, "Z score": 0.92}, {"smiles": "O=C(C1CCCN(C(=O)C2CC2c2ccccc2)C1)N1CCCC1", "note": "(centres undefined)", "% Inhibition": -3, "Z score": 0.47}, {"smiles": "FC(F)(F)c1cnccc1NCCc1nc2c(s1)COCC2", "% Inhibition": -16, "Z score": 2.43}, {"smiles": "Cc1ccc2c(c1)[C@@](O)(CC(=O)c1ccc(C3CCCCC3)cc1)C(=O)N2", "% Inhibition": -2, "Z score": 0.23}, {"smiles": "O=C(N[C@H]1C[C@@H](c2ccncc2)O[C@@H](C2CCCCC2)C1)c1ccccc1", "% Inhibition": -12, "Z score": 1.59}, {"smiles": "COc1cc(C(=O)NCC(=O)NC(C)(C)C)cc(OC)c1OC", "% Inhibition": 5, "Z score": -0.86}, {"smiles": "O=C1CC(c2ccc(NS(=O)(=O)N3CCCCC3)cc2)CC(=O)N1", "% Inhibition": 1, "Z score": -0.16}, {"smiles": "COc1ccc(CN2C(=O)N(Cc3ccccc3)c3ccccc3S2(=O)=O)cc1", "% Inhibition": 1, "Z score": -0.09}, {"smiles": "Cc1cc(C(=O)NC2CC(O)(C(F)(F)F)C2)ns1", "note": "(centres undefined)", "% Inhibition": 11, "Z score": -1.38}, {"smiles": "CCN1C[C@H](CN(C)C(=O)NC2CCC(O)CC2)Oc2ccccc21", "note": "(some centres undefined)", "% Inhibition": 5, "Z score": -0.91}, {"smiles": "Cc1ccc(C2(c3ccc(C)cc3)C(=O)Nc3ncccc32)cc1", "% Inhibition": 3, "Z score": -0.37}, {"smiles": "COc1ccccc1CN1C(=O)O[C@H]2CN(c3nc4ccccc4o3)C[C@H]21", "% Inhibition": -3, "Z score": 0.45}, {"smiles": "CCOc1cc(N2CCOCC2)c(OCC)cc1NC(=O)c1cc(C)c(C)s1", "% Inhibition": -16, "Z score": 2.07}, {"smiles": "O=C(c1ncc(F)cc1F)N1CCCC[C@@H]1CCc1ccccc1", "% Inhibition": -14, "Z score": 1.94}, {"smiles": "O=C(NC1CCCCC1)C(=O)N1CCCC1", "% Inhibition": -11, "Z score": 1.38}, {"smiles": "O=C(NCc1ccncc1)Nc1cc(-c2ccccc2)on1", "% Inhibition": -8, "Z score": 1.26}, {"smiles": "CN(C(=O)C1CC=CC1)C1CCN(C(=O)OC(C)(C)C)CC1", "% Inhibition": -1, "Z score": 0.1}, {"smiles": "C[C@@]12CN(Cc3ccccc3)C[C@@H]1CN(C(=O)COC1CCCC1)C2", "% Inhibition": 6, "Z score": -0.85}, {"smiles": "O=C(Nc1nnc[nH]1)[C@@H]1COc2ccccc2O1", "% Inhibition": -12, "Z score": 1.1}, {"smiles": "O=C(Nc1cccc2nonc12)c1ccco1", "% Inhibition": -8, "Z score": 1.13}, {"smiles": "N#Cc1c(NC(=O)CN2CCCCCC2)sc2c1CCCCC2", "% Inhibition": -6, "Z score": 0.73}, {"smiles": "O=C(c1cccc2ccccc12)N1C[C@@H]2CC[C@H]1CN(Cc1ccccn1)C2", "% Inhibition": 15, "Z score": -1.89}, {"smiles": "Cc1cc(C(=O)N2CCOC3(CCS(=O)(=O)CC3)C2)c(C)s1", "% Inhibition": -13, "Z score": 1.28}, {"smiles": "CO[C@H]1CCC[C@@H]1Nc1ccnc(N[C@H]2CCC[C@@H]2OC)n1", "% Inhibition": 23, "Z score": -2.91}]}]}
